In all, about 360,000 compounds went through this assay and about 7,500 (2.1%) were called active. Inconclusive means that the source gave no clear call. Such entries were picked first, then a sample of the others. The call rests on the fitted dose curve; in most records, active means well fitted cell-killing curve with a large enough effect; inconclusive means small, poorly fitted or top-dose-only effect, or effect the other way, or another doubt; inactive means no such curve, though single readings can be large or run the other way. Potencies of inconclusive entries are left out as doubtful fits.
Assay: qHTS for induction of synthetic lethality in tumor cells producing 2HG: qHTS for the HT-1080-IDH1KD cell line;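 on activity, negative = toxicity: 0% = DMSO wells and -100% = cell-free medium wells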
Settings: HT-1080 IDH1 knockdown viability, ATP luminescence, 48 h; activity, negative = toxicity: at 46.1 µM (top of the series) unless noted
Summary of the method: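 Using the IDH1-knockdown HT-1080 line run in the same batch and compound series as the NT line, viability after 48 h at 37 °C was determined by CellTiter-Glo luminescence and expressed as % activity.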
In the case of `COC(=O)c1ccc(Cn2nc(-c3ccc(C)c(C)c3)ccc2=O)cc1`, the Potency is reported as “inactive”.
With `CCOC(=O)C(C)(C)N(Cc1cccc(C)c1)S(=O)(=O)c1ccc(Cl)c([N+](=O)[O-])c1` the Potency was inconclusive [cytotoxic, single point].
With `Cc1cc(NC(=S)N(Cc2ccc(Br)cc2)Cc2ccc(C(=O)O)cc2)ccc1Cl` the Potency was inconclusive [cytotoxic, single point].
In the case of `Cc1nc2ccc3nc(NC(=O)c4ccc5c(c4)OCCO5)sc3c2s1`, the Potency is reported as “inactive”.
For `Cc1c(C(=O)Nc2nccs2)oc2ccc(Br)cc12`, the Potency was “inactive”.
In the case of `O=C(CCN1C(=O)c2ccccc2C1=O)Nc1sc2c(c1C(=O)NCc1ccco1)CCCC2`, the activity, negative = toxicity is reported as inconclusive: 31.7%.
With `COc1ccc(C2NC(=O)C(C#N)=C(S)N2c2ccc(C)cc2)cc1OC` (stereo unspecified) the Potency was “inactive”.
With `CC(C)(C)n1nc2c(c1NC(=O)c1ccc(Cl)c([N+](=O)[O-])c1)CS(=O)(=O)C2` the Potency was inconclusive [cytotoxic, single point].
For `O=S(=O)(c1ccccc1)c1nc(-c2ccco2)oc1NCCCN1CCOCC1`, the Potency was “inactive”.
With `COc1cccc(C=O)c1OCCCOc1cccc2cccnc12` the Potency was inconclusive [cytotoxic, full curve].
In the case of `CCSc1nnc(-c2ccc(S(=O)(=O)N3CCOCC3)cc2)n1C`, the activity, negative = toxicity is reported as inconclusive: -30.6% [cytotoxic].
In the case of `Cc1ccccc1CSc1nn2c(=O)c(C)nnc2s1`, the Potency is reported as “inactive”.
With `CC1CCN(S(=O)(=O)c2ccc(NC(=O)c3ccncc3)cc2)CC1` the Potency was inconclusive [cytotoxic, single point].
For `CCOC(=O)C1=CC[C@@H](c2ccccc2)N(S(=O)(=O)c2ccc(C)cc2)[C@H]1C`, the Potency was inconclusive [cytotoxic, single point].
In the case of `Cn1c(CCN2CCCCC2)nc2cc(NC(=O)COc3ccc([N+](=O)[O-])cc3)ccc21`, the Potency is reported as inconclusive [cytotoxic, single point].
In the case of `Cc1sc(NC(=O)c2ccco2)c(C(c2ccc(F)cc2)N2CCN(C)CC2)c1C` (stereo unspecified), the Potency is reported as inconclusive [cytotoxic, single point].
For `COCCNC(=O)C[C@H]1C[C@H]2c3cc(NS(=O)(=O)c4ccc(F)cc4)ccc3O[C@H]2[C@H](CO)O1`, the Potency was “inactive”.
With `CN1C(=O)/C(=C/c2cccc(Cl)c2)Sc2ccc(C(=O)NCc3cccnc3)cc21` the Potency was inconclusive [cytotoxic, single point].
With `Cc1ccccc1OCC(=O)NNC(=O)Cn1[nH]c(=O)c2ccccc2c1=O` the Potency was “inactive”.
In the case of `COc1cc(/C=N/NC(=O)c2ccc(Cn3cc([N+](=O)[O-])cn3)o2)cc(Br)c1O`, the Potency is reported as “inactive”.
For `Cc1cc(=O)[nH]c(-n2nc(C)cc2C)n1`, the Potency was inconclusive [cytotoxic, single point].
For `O=C(/C=C/c1ccc2c(c1)OCO2)Nc1cccnc1`, the Potency was inconclusive [cytotoxic, partial curve].
For `O=C(CCn1c(=O)c2ccccc2n(Cc2cccc([N+](=O)[O-])c2)c1=O)N1CCc2ccccc2C1`, the Potency was “inactive”.
In the case of `COc1ccc(/C=C2/C(=O)N=C3SCCN32)cc1`, the Potency is reported as inconclusive [cytotoxic, single point].
With `O=C(NCc1ccccc1)c1cccc(NC(=O)c2ccccc2)c1` the Potency was inconclusive [cytotoxic, partial curve].
In the case of `COc1ccc2c(c1OC)C(=O)OC2Nc1nc(-c2cc3ccccc3oc2=O)cs1` (stereo unspecified), the Potency is reported as inconclusive [cytotoxic, single point].
For `NC(=O)CC(NC(=O)Cc1ccc(Cl)cc1)c1ccc(NCCOc2ccccc2)c([N+](=O)[O-])c1` (stereo unspecified), the Potency was “inactive”.
In the case of `S=C(NCCN(C1CCCCC1)C1CCCC1)Nc1cccc(Cl)c1`, the Potency is reported as active: 16.4 µM.
In the case of `CCc1c(C)c(C#N)c2nc3ccccc3n2c1NCCN(C)C`, the Potency is reported as inconclusive [cytotoxic, single point].
In the case of `CC(C)(C)C(=O)Nc1sc(-c2ccccc2)cc1C(=O)O`, the Potency is reported as inconclusive [cytotoxic, single point].
In the case of `Cn1c(-c2sc3ccccc3c2Cl)n[nH]c1=S`, the Potency is reported as “inactive”.
In the case of `O=C(CCl)N1c2ccccc2Sc2c1ccc1ccccc21`, the Potency is reported as inconclusive [cytotoxic, single point].
With `COc1ccc(OC)c(/C=C/C(=O)c2ccc3c(c2)OCCO3)c1` the Potency was inconclusive [cytotoxic, single point].
With `O=C1c2ccccc2C2(c3cc(C(F)(F)F)cc(C(F)(F)F)c3)NCCN12` (stereo unspecified) the Potency was inconclusive [cytotoxic, single point].
For `O=C1/C(=C/Nc2ccc3c(c2)OCO3)CCc2ccccc21`, the Potency was inconclusive [cytotoxic, single point].
In the case of `O=C(Nc1cc(C(F)(F)F)ccc1Cl)c1ccncc1`, the Potency is reported as “inactive”.
With `O=C(CSc1ccc(Cl)cc1)Nc1cccc(-c2nc3ccccc3[nH]2)c1` the Potency was inconclusive [cytotoxic, single point].
For `N#Cc1ccccc1NC(=O)CSc1nnc(-c2ccccc2)n1-c1ccccc1`, the Potency was “inactive”.
For `Cc1ccc(/C=N/NC(=O)c2cccs2)s1`, the Potency was “inactive”.
In the case of `CC(NS(=O)(=O)OCC(Cl)(Cl)Cl)c1ccc(C(C)(C)C)cc1` (stereo unspecified), the Potency is reported as active: 29.1 µM.
In the case of `O=[N+]([O-])c1ccc2[nH]cc(S(=O)(=O)N3CCN(c4cccc(Cl)c4)CC3)c2c1`, the Potency is reported as active: 23.1 µM.
With `COc1ccc(-c2cccc([C@H]3[C@@H]4C=CCC[C@@]4(C)C(=O)N3Cc3ccccc3)c2)cc1` the Potency was inconclusive [cytotoxic, single point].
For `C/C(=N\NC(=O)c1cc(C2CC2)nc2ccccc12)c1ccc(O)cc1O`, the Potency was active: 4.61 µM.
For `O=C1Nc2ccccc2N(C(=O)c2ccc(-c3ccccc3)cc2)C1c1nc2ccccc2[nH]1` (stereo unspecified), the Potency was active: 16.4 µM.
For `Cc1nn(C)c(Oc2ccccc2)c1CCNS(=O)(=O)c1ccccc1`, the activity, negative = toxicity was inconclusive: -32% [cytotoxic].
In the case of `Cc1cnc(C)c(Nc2nc(C(N)Cc3ccc(C(F)(F)F)cc3)cs2)n1` (stereo unspecified), the Potency is reported as active: 16.4 µM.

Source: PubChem BioAssay AID686971 (National Center for Advancing Translational Sciences (NCATS), 2013)
Potency means the concentration at half of the fitted maximal effect; tags describe the fitted curve by direction and shape.
